Measured values taken from PubChem BioAssay (NCATS).
This list was built around the results that the source calls inconclusive (neither active nor inactive); the mix of calls is not that of the screen. For some assays here: Potencies of inconclusive entries are doubtful fits and often do not repeat. Calls of active or inactive are those of the source. Unless noted, calls come from the whole dose curve; as a rule, active = well fitted curve in the direction sought with a large enough effect; inconclusive = small, poorly fitted or top-dose-only effect, or another doubt; inactive = no such curve, though single readings can be large; an effect the other way counts as inactive or inconclusive.

How the values were obtained:
[1] = AP1 Signaling Pathway (AID 357; active = well fitted curve in either direction with a large enough effect, not every such curve was filed as active; inconclusive = small, poorly fitted or top-dose-only effect, or another doubt;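 note: ME-180 reporter cells stimulated with EGF at its EC50 level; top concentration of the series differs between compounds; % is set by controls: 0 for no effect and ±100 for the full control effect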); details: ME-180 AP-1-bla reporter, EGF-induced, beta-lactamase ratio, 5 h; at 7.69 µM (top of the series) unless noted
In short: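 Titration-series screen for positive or negative modulators of EC50 EGF-induced signaling in ME-180 cells carrying an AP-1-driven beta-lactamase reporter. After 5 hours at 37 degrees Celsius, CCF4 460nm/530nm emission ratio gave %Activity; AC50 values derived.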

[2] = biological target: 3',5'-cyclic-AMP phosphodiesterase 4B (Homo sapiens) (UniProt Q07343); experiment: qHTS Assay for Inhibitors of PDE-IV (AID 607; active = well fitted activation curve with a large enough effect in the main read-out, with a control signal flat, not every such curve was filed as active; inconclusive = small, poorly fitted or top-dose-only effect, or effect the other way, or a change in a side signal; note: potency is the fitted concentration of half-maximal effect; for activation (PDE inhibition): % of control where 0% means no effect); details: HEK293 ACTOne CNG channel cells, membrane potential fluorescence; activation (PDE inhibition): at 22.9 µM (top of the series)
Chain of UniProt Q07343 (Q07343 whole entry, looked up): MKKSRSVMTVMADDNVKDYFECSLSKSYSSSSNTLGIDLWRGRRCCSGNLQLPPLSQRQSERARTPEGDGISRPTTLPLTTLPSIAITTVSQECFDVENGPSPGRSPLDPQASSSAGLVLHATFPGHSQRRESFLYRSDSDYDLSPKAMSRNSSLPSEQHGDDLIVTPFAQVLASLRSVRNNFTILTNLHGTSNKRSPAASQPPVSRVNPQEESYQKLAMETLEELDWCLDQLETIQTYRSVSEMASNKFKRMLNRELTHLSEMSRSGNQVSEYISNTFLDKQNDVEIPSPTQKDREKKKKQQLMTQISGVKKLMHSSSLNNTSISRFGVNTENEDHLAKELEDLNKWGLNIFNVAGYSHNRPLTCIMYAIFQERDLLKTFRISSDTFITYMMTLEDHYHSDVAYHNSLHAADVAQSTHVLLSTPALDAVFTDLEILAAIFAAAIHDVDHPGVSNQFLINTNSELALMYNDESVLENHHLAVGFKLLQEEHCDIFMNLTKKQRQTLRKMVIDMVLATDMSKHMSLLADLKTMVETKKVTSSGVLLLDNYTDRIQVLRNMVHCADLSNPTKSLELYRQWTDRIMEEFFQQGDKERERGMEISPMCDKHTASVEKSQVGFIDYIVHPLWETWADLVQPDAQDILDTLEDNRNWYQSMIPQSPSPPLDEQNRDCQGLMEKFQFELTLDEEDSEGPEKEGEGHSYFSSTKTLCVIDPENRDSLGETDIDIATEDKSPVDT
In short: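 The readout is membrane depolarisation from a cAMP-sensing CNG channel, detected with a potential dye at ex 535/em 590. Cells were HEK293-derived (endogenous PDE-IV) at 1000 cells/well, titrated up to 22.9 uM final.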

[3] = qHTS Assay for Identification of Small Molecule Agonists for Hypoxia Response Element Signaling Pathway (AID 914; active = well fitted activation curve with a large enough effect in the signal ratio, with a control signal flat, not every such curve was filed as active; inconclusive = small, poorly fitted or top-dose-only effect, or effect the other way, or a change in a side signal; the % refers to the signal ratio; note: potency is the fitted concentration of half-maximal effect; for activation: top concentration of the series differs between compounds; % of control where 0% means no effect); details: ME-180 HRE-bla reporter, beta-lactamase ratio, CoCl2, 17 h; activation: active compounds read high
In short: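 In Opti-MEM containing 0.5% dialyzed FBS and 10 mM HEPES, ME-180 HRE-bla cells received a compound titration and EC50 CoCl2. They were incubated 17 hours, then CCF4-loaded 2.5 hours at room temperature before ratio reading.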

[4] = biological target: Dual specificity protein kinase CLK4 (Homo sapiens) (UniProt Q9HAZ1); experiment: qHTS Assay for Inhibitors of CDC-like Kinase 4 (ADP-Glo Assay) (AID 1771); note: potency is the fitted concentration of half-maximal effect; nearly all actives have a fitted effect of over 70% in size
Chain of UniProt Q9HAZ1 (Q9HAZ1 whole entry, looked up): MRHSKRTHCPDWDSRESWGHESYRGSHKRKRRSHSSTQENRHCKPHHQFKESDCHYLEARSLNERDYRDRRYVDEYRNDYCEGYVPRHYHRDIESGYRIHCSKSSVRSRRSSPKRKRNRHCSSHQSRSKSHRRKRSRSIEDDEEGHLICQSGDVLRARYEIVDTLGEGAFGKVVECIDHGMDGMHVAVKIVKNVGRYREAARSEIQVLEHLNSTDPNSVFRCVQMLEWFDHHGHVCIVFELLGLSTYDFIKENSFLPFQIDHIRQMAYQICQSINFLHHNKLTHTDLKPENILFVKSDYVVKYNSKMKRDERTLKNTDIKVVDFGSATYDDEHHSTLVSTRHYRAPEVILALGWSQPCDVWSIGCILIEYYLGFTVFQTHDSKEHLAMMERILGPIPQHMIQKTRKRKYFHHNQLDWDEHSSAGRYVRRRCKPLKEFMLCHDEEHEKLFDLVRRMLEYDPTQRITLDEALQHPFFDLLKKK
In short: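 25 nM Clk4 with 100 uM RS repeat peptide and 1 uM ATP (final) in buffer with 2 mM MgCl2, 0.5 mM EGTA, 2.5 mM DTT, 0.01% Triton X-100; 1 h at room temperature; ADP-Glo luminescence for ADP formed.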

[5] = Primary qHTS for small molecule stabilizers of the endoplasmic reticulum resident proteome: Secreted ER Calcium Modulated Protein (SERCaMP) assay (AID 1508630); details: SH-SY5Y GLuc-SERCaMP (Gaussia luciferase released on ER calcium loss) secretion, thapsigargin, luminescence; activity change, negative = inhibition: at 38.4 µM (top of the series) unless noted; note: potency is the fitted concentration of half-maximal effect; for activity change, negative = inhibition: % is set by controls: 0 for no effect and ±100 for the full control effect
In short: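 GLuc-SERCaMP-expressing SH-SY5Y cells, pretreated 16 h with compound, are challenged with thapsigargin to empty ER calcium stores; after 4 h, coelenterazine is added directly to the medium and luminescence is imaged.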

[6] = biological target: Rap guanine nucleotide exchange factor 3 (Homo sapiens) (UniProt O95398); experiment: Confirmatory qHTS for antagonist of cAMP-regulated guanine nucleotide exchange factor 3 (EPAC1) (AID 1645880); details: EPAC1 Rap1B-BODIPY-GDP exchange, fluorescence; activity, negative = inhibition: at 115 µM (top of the series); note: nearly all actives have a fitted effect of over 55% in size; note: potency is the fitted concentration of half-maximal effect;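 for activity, negative = inhibition: plate controls were DMSO only for no effect and full effect of the ATA control for full effect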
Chain of UniProt O95398 (O95398 whole entry, looked up): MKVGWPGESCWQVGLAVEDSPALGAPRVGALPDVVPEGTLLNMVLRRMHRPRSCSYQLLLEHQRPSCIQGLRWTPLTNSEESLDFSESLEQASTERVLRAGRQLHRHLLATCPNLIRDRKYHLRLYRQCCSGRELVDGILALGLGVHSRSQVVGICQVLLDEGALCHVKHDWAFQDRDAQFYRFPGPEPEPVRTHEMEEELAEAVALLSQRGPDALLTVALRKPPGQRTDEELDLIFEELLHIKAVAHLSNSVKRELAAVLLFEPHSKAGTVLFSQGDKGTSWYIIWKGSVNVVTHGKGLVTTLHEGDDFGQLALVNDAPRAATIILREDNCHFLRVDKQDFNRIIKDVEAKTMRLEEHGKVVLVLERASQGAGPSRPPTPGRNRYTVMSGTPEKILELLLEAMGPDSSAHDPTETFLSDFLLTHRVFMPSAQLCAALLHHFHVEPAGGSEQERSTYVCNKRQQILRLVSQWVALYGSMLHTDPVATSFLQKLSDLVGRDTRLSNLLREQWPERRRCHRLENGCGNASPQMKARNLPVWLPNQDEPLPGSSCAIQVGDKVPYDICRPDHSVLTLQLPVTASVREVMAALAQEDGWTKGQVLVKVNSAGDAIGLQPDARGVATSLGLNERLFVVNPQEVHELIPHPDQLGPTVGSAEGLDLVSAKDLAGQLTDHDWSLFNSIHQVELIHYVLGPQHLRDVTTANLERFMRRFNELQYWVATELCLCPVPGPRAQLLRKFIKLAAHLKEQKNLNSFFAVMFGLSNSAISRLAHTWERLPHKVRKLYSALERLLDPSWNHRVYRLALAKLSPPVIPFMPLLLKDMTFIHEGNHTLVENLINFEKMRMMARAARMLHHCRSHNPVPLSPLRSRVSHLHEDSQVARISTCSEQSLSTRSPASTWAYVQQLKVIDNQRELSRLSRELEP
In short: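 Nucleotide exchange uses 100 nM EPAC1, 250 nM RAP1B-BODIPY-GDP and 50 uM GDP, with compounds in a concentration-titration series. After 5 min at room temperature, fluorescence (480 nm ex/540 nm em) is read every 5 min for 30 min. Data are normalized to control ATA and DMSO.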

[7] = biological target: Rap guanine nucleotide exchange factor 4 (Homo sapiens) (UniProt Q8WZA2); experiment: Confirmatory qHTS for agonist of cAMP-regulated guanine nucleotide exchange factor 4 (EPAC2) (AID 1645884); details: EPAC2 GEF activity, Rap1B-BODIPY-GDP fluorescence; activation: at 154 µM (top of the series), percent relative to cAMP agonist control;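 note: nucleotide exchange releases bodipy-GDP from Rap1 and this lowers its fluorescence; potency is the fitted concentration of half-maximal effect; nearly all actives have a fitted effect of over 65% in size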
Chain of UniProt Q8WZA2 (Q8WZA2 whole entry, looked up): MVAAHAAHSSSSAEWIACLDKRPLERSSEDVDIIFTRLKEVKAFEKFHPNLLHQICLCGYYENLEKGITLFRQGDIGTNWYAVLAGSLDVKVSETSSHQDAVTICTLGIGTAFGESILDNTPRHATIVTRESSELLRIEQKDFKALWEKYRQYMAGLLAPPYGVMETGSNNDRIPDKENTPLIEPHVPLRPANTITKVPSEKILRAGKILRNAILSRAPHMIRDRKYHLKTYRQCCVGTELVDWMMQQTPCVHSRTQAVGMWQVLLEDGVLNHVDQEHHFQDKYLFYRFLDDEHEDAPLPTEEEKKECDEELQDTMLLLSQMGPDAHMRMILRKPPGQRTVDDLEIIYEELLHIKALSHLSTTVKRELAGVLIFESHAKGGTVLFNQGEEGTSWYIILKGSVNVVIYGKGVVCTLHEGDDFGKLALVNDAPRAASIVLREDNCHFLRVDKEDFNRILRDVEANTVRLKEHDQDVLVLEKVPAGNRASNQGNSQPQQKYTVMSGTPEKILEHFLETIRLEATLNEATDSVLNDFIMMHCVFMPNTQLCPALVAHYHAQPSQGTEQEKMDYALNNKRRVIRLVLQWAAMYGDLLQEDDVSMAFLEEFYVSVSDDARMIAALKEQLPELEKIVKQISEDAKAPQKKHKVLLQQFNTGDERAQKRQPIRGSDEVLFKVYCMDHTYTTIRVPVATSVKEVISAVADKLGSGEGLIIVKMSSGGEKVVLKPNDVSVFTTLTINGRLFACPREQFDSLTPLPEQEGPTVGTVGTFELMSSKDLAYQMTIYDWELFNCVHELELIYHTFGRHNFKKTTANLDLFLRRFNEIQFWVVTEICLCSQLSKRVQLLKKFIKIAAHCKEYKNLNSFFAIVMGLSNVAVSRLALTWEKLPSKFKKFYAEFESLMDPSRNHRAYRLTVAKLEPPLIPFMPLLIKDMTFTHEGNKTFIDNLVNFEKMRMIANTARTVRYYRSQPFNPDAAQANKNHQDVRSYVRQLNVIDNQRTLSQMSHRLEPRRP

[8] = biological target: Rap guanine nucleotide exchange factor 4 (Homo sapiens) (UniProt Q8WZA2); experiment: Confirmatory qHTS for antagonist of cAMP-regulated guanine nucleotide exchange factor 4 (EPAC2) (AID 1645885); details: activity change, negative = inhibition: at 12.7 µM (top of the series) unless noted; note: potency is the fitted concentration of half-maximal effect; nearly all actives have a fitted effect of over 25% in size
[9] = Stat Signaling Pathway (AID 446; active = well fitted curve in either direction with a large enough effect, not every such curve was filed as active; inconclusive = small, poorly fitted or top-dose-only effect, or another doubt;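 note: ME-180 cervical cancer cells given 40 pM IL-6 alongside compound; SIE-controlled beta-lactamase reporter measured as 460/530 nm FRET emission ratio; top concentration of the series differs between compounds; % is set by controls: 0 for no effect and ±100 for the full control effect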); details: ME-180 SIE beta-lactamase reporter, IL-6 stimulated, 5 h; at 7.69 µM (top of the series) unless noted
In short: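 Screening format detects activators and inhibitors alike: ME-180 SIE-bla cells stimulated at 40 pM IL-6 for 5 hrs with compound, then dual-emission beta-lactamase read at 405 nm excitation.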

[10] = biological target: Cytochrome P450 2C9 (Homo sapiens) (UniProt P11712); experiment: qHTS Assay for Inhibitors and Substrates of Cytochrome P450 2C9 (AID 883); note: % is set by controls: 0 for no effect and ±100 for the full control effect; nearly all actives have a fitted effect of over 60% in size
Chain of UniProt P11712 (P11712 whole entry, looked up): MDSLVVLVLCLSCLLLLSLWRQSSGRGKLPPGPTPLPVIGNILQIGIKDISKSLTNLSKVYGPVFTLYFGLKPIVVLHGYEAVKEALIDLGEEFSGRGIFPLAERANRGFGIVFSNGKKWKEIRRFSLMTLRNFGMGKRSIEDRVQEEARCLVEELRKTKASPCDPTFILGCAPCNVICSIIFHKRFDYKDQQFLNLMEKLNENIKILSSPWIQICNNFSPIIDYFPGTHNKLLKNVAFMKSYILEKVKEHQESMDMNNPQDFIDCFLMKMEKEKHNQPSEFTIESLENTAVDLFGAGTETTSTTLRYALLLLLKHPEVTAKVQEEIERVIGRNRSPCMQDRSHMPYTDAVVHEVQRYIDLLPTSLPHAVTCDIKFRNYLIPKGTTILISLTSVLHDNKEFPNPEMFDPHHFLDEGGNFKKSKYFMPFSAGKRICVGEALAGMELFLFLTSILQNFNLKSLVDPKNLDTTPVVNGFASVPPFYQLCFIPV
In short: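 Human CYP2C9 (10nM) hydroxylated Luciferin-H (100uM, at its KM) to luciferin in 25mM KPO4. Compound was preincubated 10 min at 37C, then NADPH regeneration started a 60 min reaction at 37C. Luminescence was read after detection reagent, normalized to 57uM sulphaphenazole.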

[11] = biological target: Cytochrome P450 3A4 (Homo sapiens) (UniProt P08684); experiment: qHTS Assay for Inhibitors and Substrates of Cytochrome P450 3A4 (AID 884); details: recombinant CYP3A4, Luciferin-PPXE luminescence; activity change, negative = inhibition: at 57.1 µM (top of the series); note: % is set by controls: 0 for no effect and ±100 for the full control effect; nearly all actives have a fitted effect of over 50% in size
In short: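 20 nM human CYP3A4 with 25 uM Luciferin-PPXE (at KM) in 200 mM KPO4, preincubated 10 min with compound; NADPH regeneration started a 60 min RT reaction. Luciferin detected by luminescence, normalized to 57 uM ketoconazole as full inhibition.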

[12] = biological target: Cytochrome P450 2D6 (Homo sapiens) (UniProt P10635); experiment: qHTS Assay for Inhibitors and Substrates of Cytochrome P450 2D6 (AID 891);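 note: luciferin methyl ether substrate demethylated by CYP2D6 with NADPH regeneration; top concentration of the series differs between compounds; % is set by controls: 0 for no effect and ±100 for the full control effect; nearly all actives have a fitted effect of over 60% in size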
Chain of UniProt P10635 (P10635 whole entry, looked up): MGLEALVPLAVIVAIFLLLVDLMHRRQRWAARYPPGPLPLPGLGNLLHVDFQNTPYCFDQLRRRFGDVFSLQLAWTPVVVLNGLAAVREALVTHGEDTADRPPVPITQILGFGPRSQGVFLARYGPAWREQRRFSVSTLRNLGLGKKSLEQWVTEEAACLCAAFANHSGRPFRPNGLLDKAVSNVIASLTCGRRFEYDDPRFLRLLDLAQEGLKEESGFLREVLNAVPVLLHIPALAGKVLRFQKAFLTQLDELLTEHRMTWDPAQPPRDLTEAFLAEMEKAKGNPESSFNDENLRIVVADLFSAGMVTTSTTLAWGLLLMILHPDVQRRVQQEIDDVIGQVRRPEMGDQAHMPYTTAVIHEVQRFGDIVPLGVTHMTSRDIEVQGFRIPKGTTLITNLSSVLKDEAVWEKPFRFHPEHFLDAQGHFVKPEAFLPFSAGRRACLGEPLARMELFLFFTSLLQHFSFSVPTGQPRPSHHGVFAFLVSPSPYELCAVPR
In short: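 Human CYP2D6 (5 nM) with 30 uM Luciferin-ME EGE (at Km) in 100 mM KPO4, compound preincubated 10 min, then NADPH regeneration system for 60 min at room temperature. Luciferin read by luminescence; normalized to 1.43 uM quinidine.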

[13] = biological target: Dual specificity protein kinase CLK4 (Homo sapiens) (UniProt Q9HAZ1); experiment: qHTS Assay for Inhibitors of CDC-like Kinase 4 (Kinase-Glo Assay) (AID 1770); note: potency is the fitted concentration of half-maximal effect; nearly all actives have a fitted effect of over 65% in size
In short: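 Recombinant human Clk4 (25 nM) phosphorylated RS repeat peptide (100 uM) with 1 uM ATP in Tris pH 7.5/MgCl2/EGTA/DTT/Triton buffer for 4.5 h at room temperature. Residual ATP was quantified by Kinase-Glo luciferase luminescence.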

[14] = biological target: Dual specificity protein kinase CLK4 (Homo sapiens) (UniProt Q9HAZ1); experiment: qHTS Assay for Inhibitors of CDC-like Kinase 4 (ADP-FP Assay) (AID 1795); note: potency is the fitted concentration of half-maximal effect; nearly all actives have a fitted effect of over 60% in size
In short: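 Recombinant human Clk4 (6.25 nM) phosphorylated RS repeat peptide (100 uM) with 1 uM ATP in Tris pH 7.5/MgCl2/EGTA/DTT/Triton buffer for one hour. ADP was quantified by Transcreener competitive fluorescence polarization against an ADP calibration curve.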

[15] = biological target: Cytochrome P450 1A2 (Homo sapiens) (UniProt P05177); experiment: p450-cyp1a2 (AID 410; calls by dose curve; note: potency is the fitted concentration of half-maximal effect)
Chain of UniProt P05177 (P05177 whole entry, looked up): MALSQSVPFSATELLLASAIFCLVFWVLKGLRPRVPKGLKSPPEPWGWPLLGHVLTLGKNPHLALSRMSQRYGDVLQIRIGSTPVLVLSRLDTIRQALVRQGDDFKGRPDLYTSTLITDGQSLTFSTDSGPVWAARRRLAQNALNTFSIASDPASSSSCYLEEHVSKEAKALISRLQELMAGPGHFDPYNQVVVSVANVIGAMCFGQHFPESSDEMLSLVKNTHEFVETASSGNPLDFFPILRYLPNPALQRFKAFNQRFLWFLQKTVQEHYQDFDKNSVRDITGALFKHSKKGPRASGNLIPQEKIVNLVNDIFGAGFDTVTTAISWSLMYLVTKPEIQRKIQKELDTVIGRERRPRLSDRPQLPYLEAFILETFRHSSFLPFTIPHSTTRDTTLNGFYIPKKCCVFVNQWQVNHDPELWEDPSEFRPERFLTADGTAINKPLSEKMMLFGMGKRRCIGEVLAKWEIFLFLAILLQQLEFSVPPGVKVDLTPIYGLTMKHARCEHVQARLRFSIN
In short: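 20nM CYP1A2 with 100uM Luciferin-ME (at Km) in 100mM KPO4; compound preincubated 10 min, NADPH regeneration added, 60 min at room temperature. Luciferin quantified by luminescence after detection reagent; normalized to 57 uM furafylline.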

[16] = biological target: Mitogen-activated protein kinase 10 (Mus musculus) (UniProt Q61831); experiment: JNK3 AlphaScreen Assay (AID 530; active = well fitted curve in either direction with a large enough effect, not every such curve was filed as active; inconclusive = small, poorly fitted or top-dose-only effect, or another doubt;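 note: kinase came from lysate of stimulated human HepG2 cells; signal reports phosphorylation of biotinylated GST-cJun 1-79 at Ser73 with 10 µM ATP; potency is the fitted concentration of half-maximal effect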); details: JNK3 lysate, c-Jun phosphorylation; activity change, negative = inhibition: at 57.1 µM (top of the series)
In short: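 Inhibitors reduce antibody binding to phosphorylated biotin-cJun, lowering AlphaScreen luminescence. Lysates from HepG2 cells pre-activated by IL-1beta plus TNF-alpha supplied JNK3; compounds were titrated.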

[17] = qHTS Assay for Identification of Small Molecule Antagonists for NFkB Signaling Pathway (AID 895; active = well fitted inhibition curve with a large enough effect in the signal ratio, with a control signal flat, not every such curve was filed as active; inconclusive = small, poorly fitted or top-dose-only effect, or effect the other way, or a change in a side signal; the % refers to the signal ratio; note: % is set by controls: 0 for no effect and ±100 for the full control effect); details: NFkB beta-lactamase reporter cells, FRET ratio 460/530, stimulated with 10 pM TNF alpha; activity change, negative = inhibition: at 38.3 µM (top of the series)
In short: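 NFkB-bla ME-180 cervical carcinoma cells with beta-lactamase reporter under NFkB response element; compounds added, then TNF alpha at 10 pM final (EC50), 5 h at 37 C. LiveBLAzer substrate 2 h, room temperature; emission 460/530 nm at 405 nm excitation.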

[18] = qHTS Assay for Identification of Small Molecule Antagonists for Thrombopoietin (TPO) Signaling Pathway (AID 918); details: TPO-dependent cell signaling reporter, antagonist mode; activity change, negative = inhibition: at 38.5 µM (top of the series); note: nearly all actives have a fitted effect of over 60% in size
In short: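 Murine Ba/F3 cells expressing human TPO receptor and a Glycoprotein IIb promoter-luciferase reporter, IL-3-starved overnight, treated with compound plus TPO at EC50 (26 pM final). After 24 h at 37 C, luminescence read to detect inhibitors.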

[19] = biological target: Muscarinic acetylcholine receptor M1 (Rattus norvegicus) (UniProt P08482); experiment: qHTS Assay for Antagonists of Acetylcholine Muscarinic M1 Receptor: Kinetic Measurement of Intracellular Calcium Response (AID 943); note: potency is the fitted concentration of half-maximal effect; nearly all actives have a fitted effect of over 75% in size
In short: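 CHO cells expressing rat M1 receptor, Fluo-4 loaded, preincubated 10 min with compound, then stimulated with EC80 carbachol (100 nM final). Kinetic calcium fluorescence over 4 min; response taken as peak over basal signal.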

[20] = Primary qHTS for inhibitors of nuclear receptor binding SET domain protein 2 (NSD2) in an isogenic RCH-ACV NSD2 p.E1099K mutant (9B) (AID 1645876); note: potency is the fitted concentration of half-maximal effect; nearly all actives have a fitted effect of over 70% in size
[21] = Primary qHTS for inhibitors of nuclear receptor binding SET domain protein 2 (NSD2) in an RCH-ACV wild type WT cells (2C) (AID 1645877); note: potency is the fitted concentration of half-maximal effect; nearly all actives have a fitted effect of over 70% in size
Tags give direction and shape of the fitted curve or compound fluorescence and quenching.

COc1cccc(-c2cc(NCc3ccc(OC)cc3OC)ncn2)c1
activity change, negative = inhibition [1]: inconclusive: -37.5% [inhibitor] | Potency [2]: inactive | activation [3]: inactive: 1.95% | Potency [4]: inconclusive: 28.2 µM [falling, single point] | Potency [5]: inactive | Potency [6]: inactive | Potency [7]: inconclusive: 35.4 µM [activator, partial curve, poor fit] | Potency [8]: inconclusive: 35 µM [inhibitor, partial curve, poor fit]

Cc1ccccc1-c1ccc2ncnc(N3CCOCC3)c2c1
activity, negative = inhibition [9]: inconclusive: 49.5% [activator] | Potency [2]: inconclusive: 12.6 µM [activator, partial curve] | activity change, negative = inhibition [10]: inactive: -24.2% [at 2.29 µM] | Potency [11]: inactive | Potency [12]: inactive | Potency [3]: inconclusive: 0.251 µM [inhibitor, full curve, poor fit] | Potency [13]: inconclusive: 31.6 µM [falling, partial curve] | Potency [4]: inconclusive: 31.6 µM [falling, partial curve] | Potency [14]: inconclusive: 20 µM [falling, single point] | Potency [5]: inconclusive: 28.2 µM [inhibitor, single point] | Potency [8]: inconclusive: 31.2 µM [inhibitor, partial curve]

COc1ccccc1N1CCN(C[C@@H](O)COc2cccc3ccccc23)CC1
Potency [15]: inconclusive: 12.6 µM [decreasing] | activity, negative = inhibition [9]: inconclusive: -49.4% [inhibitor] [at 38 µM] | Potency [16]: inconclusive: 0.01 µM [activator, full curve, poor fit] | Potency [2]: inconclusive: 10 µM [activator, partial curve, poor fit] | activity change, negative = inhibition [17]: inconclusive: -9.71% | activity change, negative = inhibition [18]: inconclusive: 5.57% [phenotype inactive] | Potency [19]: inconclusive: 5.62 µM [inhibitor, partial curve, poor fit] | Potency [5]: inconclusive: 28.2 µM [inhibitor, single point] | Potency [6]: inconclusive: 17.7 µM [inhibitor, partial curve, poor fit] | Potency [8]: inconclusive: 55.5 µM [inhibitor, single point]

CCCC[C@@H](C=O)NC(=O)[C@H](CC(C)C)NC(=O)OCc1ccccc1
Potency [5]: inactive | Potency [20]: inconclusive: 33.2 µM [inhibitor, single point] | Potency [21]: inconclusive: 18.6 µM [inhibitor, partial curve]
